The values that follow come from article PMC12889043.

These are yes or no findings as the source states them, for the method shown. Binding seen in cells or lysates may run through a third protein. Some binding calls cover weakened binding; strength is not graded here. Where a sequence is shown, tags or fusion partners need not be part of it.

Experiment [1] addresses T1, Flag-tagged full-length human RND3 (pcDNA3.1-Flag-hRND3) (human) (UniProt P61587).
T1 sequence: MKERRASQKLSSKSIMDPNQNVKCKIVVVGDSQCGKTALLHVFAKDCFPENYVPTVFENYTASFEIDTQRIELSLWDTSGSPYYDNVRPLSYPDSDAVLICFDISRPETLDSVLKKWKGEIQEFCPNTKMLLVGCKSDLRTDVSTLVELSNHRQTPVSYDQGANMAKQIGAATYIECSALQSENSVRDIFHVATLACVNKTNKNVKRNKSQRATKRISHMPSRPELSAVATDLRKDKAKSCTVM
Kind of experiment: co-IP; HEK293T co-transfected with Flag-RND3 and one HA-tagged adaptor, 24 h; RIPA lysate; anti-Flag agarose affinity gel overnight at 4 C, washed with cold TBS; blot with anti-HA.

Experiment [2] addresses T1, Flag-tagged full-length human RND3 (pcDNA3.1-Flag-hRND3) (human). The experiment in a line: co-IP; HEK293T transfected with HA-IKKε or Flag-RND3 alone, 24 h; precipitate blotted with anti-RND3 or anti-IKKε for the endogenous partner.
Experiment [3] has as its target T2, HA-IKKε (IκB kinase epsilon) (UniProt Q14164).
T2 sequence: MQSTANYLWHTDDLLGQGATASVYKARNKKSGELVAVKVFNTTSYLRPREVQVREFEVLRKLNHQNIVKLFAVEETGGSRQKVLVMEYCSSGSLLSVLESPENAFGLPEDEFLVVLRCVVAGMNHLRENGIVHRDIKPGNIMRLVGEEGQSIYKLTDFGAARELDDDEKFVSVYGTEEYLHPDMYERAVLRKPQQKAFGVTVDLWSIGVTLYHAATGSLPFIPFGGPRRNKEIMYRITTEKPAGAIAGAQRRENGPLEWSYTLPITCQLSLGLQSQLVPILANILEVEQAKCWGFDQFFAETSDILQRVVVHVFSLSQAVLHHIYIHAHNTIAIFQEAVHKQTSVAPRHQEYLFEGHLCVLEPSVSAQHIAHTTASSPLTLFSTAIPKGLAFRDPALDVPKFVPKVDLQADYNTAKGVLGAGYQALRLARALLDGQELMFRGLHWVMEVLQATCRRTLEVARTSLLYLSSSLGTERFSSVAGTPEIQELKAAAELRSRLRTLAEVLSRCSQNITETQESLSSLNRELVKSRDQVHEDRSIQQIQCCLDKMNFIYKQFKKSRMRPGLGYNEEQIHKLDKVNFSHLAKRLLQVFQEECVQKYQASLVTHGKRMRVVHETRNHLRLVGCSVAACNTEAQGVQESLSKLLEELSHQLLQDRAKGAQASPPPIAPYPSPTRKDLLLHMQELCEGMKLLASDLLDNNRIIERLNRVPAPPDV
The experiment is described as above.

B1: HA-RIG-I (protein, UniProt O95786 1-925)
chain: MTTEQRRSLQAFQDYIRKTLDPTYILSYMAPWFREEEVQYIQAEKNNKGPMEAATLFLKFLLELQEEGWFRGFLDALDHAGYSGLYEAIESWDFKKIEKLEEYRLLLKRLQPEFKTRIIPTDIISDLSECLINQECEEILQICSTKGMMAGAEKLVECLLRSDKENWPKTLKLALEKERNKFSELWIVEKGIKDVETEDLEDKMETSDIQIFYQEDPECQNLSENSCPPSEVSDTNLYSPFKPRNYQLELALPAMKGKNTIICAPTGCGKTFVSLLICEHHLKKFPQGQKGKVVFFANQIPVYEQQKSVFSKYFERHGYRVTGISGATAENVPVEQIVENNDIIILTPQILVNNLKKGTIPSLSIFTLMIFDECHNTSKQHPYNMIMFNYLDQKLGGSSGPLPQVIGLTASVGVGDAKNTDEALDYICKLCASLDASVIATVKHNLEELEQVVYKPQKFFRKVESRISDKFKYIIAQLMRDTESLAKRICKDLENLSQIQNREFGTQKYEQWIVTVQKACMVFQMPDKDEESRICKALFLYTSHLRKYNDALIISEHARMKDALDYLKDFFSNVRAAGFDEIEQDLTQRFEEKLQELESVSRDPSNENPKLEDLCFILQEEYHLNPETITILFVKTRALVDALKNWIEGNPKLSFLKPGILTGRGKTNQNTGMTLPAQKCILDAFKASGDHNILIATSVADEGIDIAQCNLVILYEYVGNVIKMIQTRGRGRARGSKCFLLTSNAGVIEKEQINMYKEKMMNDSILRLQTWDEAVFREKILHIQTHEKFIRDSQEKPKPVPDKENKKLLCRKCKALACYTADVRVIEECHYTVLGDAFKECFVSRPHPKPKQFSSFEKRAKIFCARQNCSHDWGIHVKYKTFEIPVIKIESFVVEDIATGVQTLYSKWKDFHFEKIPFDPAEMSK
On to B1, for which the binding entry in experiment [1] is “no binding”.

B2: HA-IKKε (IκB kinase epsilon) (protein, UniProt Q14164 1-716)
chain: T2 sequence
In the case of B2, the binding result in experiment [1] is given as “binds”.

B3: endogenous IKKε (protein, UniProt Q14164 1-716)
chain: T2 sequence
B3: in experiment [2], the binding result is “binds”.

B4: HA-TBK1 (protein, UniProt Q9UHD2 1-729)
chain: MQSTSNHLWLLSDILGQGATANVFRGRHKKTGDLFAIKVFNNISFLRPVDVQMREFEVLKKLNHKNIVKLFAIEEETTTRHKVLIMEFCPCGSLYTVLEEPSNAYGLPESEFLIVLRDVVGGMNHLRENGIVHRDIKPGNIMRVIGEDGQSVYKLTDFGAARELEDDEQFVSLYGTEEYLHPDMYERAVLRKDHQKKYGATVDLWSIGVTFYHAATGSLPFRPFEGPRRNKEVMYKIITGKPSGAISGVQKAENGPIDWSGDMPVSCSLSRGLQVLLTPVLANILEADQEKCWGFDQFFAETSDILHRMVIHVFSLQQMTAHKIYIHSYNTATIFHELVYKQTKIISSNQELIYEGRRLVLEPGRLAQHFPKTTEENPIFVVSREPLNTIGLIYEKISLPKVHPRYDLDGDASMAKAITGVVCYACRIASTLLLYQELMRKGIRWLIELIKDDYNETVHKKTEVVITLDFCIRNIEKTVKVYEKLMKINLEAAELGEISDIHTKLLRLSSSQGTIETSLQDIDSRLSPGGSLADAWAHQEGTHPKDRNVEKLQVLLNCMTEIYYQFKKDKAERRLAYNEEQIHKFDKQKLYYHATKAMTHFTDECVKKYEAFLNKSEEWIRKMLHLRKQLLSLTNQCFDIEEEVSKYQEYTNELQETLPQKMFTASSGIKHTMTPIYPSSNTLVEMTLGMKKLKEEMEGVVKELAENNHILERFGSLTMDGGLRNVDCL
B4: the binding entry in experiment [1] is “no binding”.

B5: endogenous RND3 (protein, UniProt P61587 1-244)
chain: T1 sequence
For B5, the binding entry in experiment [3] was “binds”.

B6: HA-IRF3 (protein, UniProt Q14653 1-427)
chain: MGTPKPRILPWLVSQLDLGQLEGVAWVNKSRTRFRIPWKHGLRQDAQQEDFGIFQAWAEATGAYVPGRDKPDLPTWKRNFRSALNRKEGLRLAEDRSKDPHDPHKIYEFVNSGVGDFSQPDTSPDTNGGGSTSDTQEDILDELLGNMVLAPLPDPGPPSLAVAPEPCPQPLRSPSLDNPTPFPNLGPSENPLKRLLVPGEEWEFEVTAFYRGRQVFQQTISCPEGLRLVGSEVGDRTLPGWPVTLPDPGMSLTDRGVMSYVRHVLSCLGGGLALWRAGQWLWAQRLGHCHTYWAVSEELLPNSGHGPDGEVPKDKEGGVFDLGPFIVDLITFTEGSGRSPRYALWFCVGESWPQDQPWTKRLVMVKVVPTCLRALVEMARVGGASSLENTVDLHISNSHPLSLTSDQYKAYLQDLVEGMDFQGPGES
Regarding B6, the binding result in experiment [1] is given as “no binding”.

B7: HA-MDA5 (protein, UniProt Q9BYX4 1-1025)
chain: MSNGYSTDENFRYLISCFRARVKMYIQVEPVLDYLTFLPAEVKEQIQRTVATSGNMQAVELLLSTLEKGVWHLGWTREFVEALRRTGSPLAARYMNPELTDLPSPSFENAHDEYLQLLNLLQPTLVDKLLVRDVLDKCMEEELLTIEDRNRIAAAENNGNESGVRELLKRIVQKENWFSAFLNVLRQTGNNELVQELTGSDCSESNAEIENLSQVDGPQVEEQLLSTTVQPNLEKEVWGMENNSSESSFADSSVVSESDTSLAEGSVSCLDESLGHNSNMGSDSGTMGSDSDEENVAARASPEPELQLRPYQMEVAQPALEGKNIIICLPTGSGKTRVAVYIAKDHLDKKKKASEPGKVIVLVNKVLLVEQLFRKEFQPFLKKWYRVIGLSGDTQLKISFPEVVKSCDIIISTAQILENSLLNLENGEDAGVQLSDFSLIIIDECHHTNKEAVYNNIMRHYLMQKLKNNRLKKENKPVIPLPQILGLTASPGVGGATKQAKAEEHILKLCANLDAFTIKTVKENLDQLKNQIQEPCKKFAIADATREDPFKEKLLEIMTRIQTYCQMSPMSDFGTQPYEQWAIQMEKKAAKEGNRKERVCAEHLRKYNEALQINDTIRMIDAYTHLETFYNEEKDKKFAVIEDDSDEGGDDEYCDGDEDEDDLKKPLKLDETDRFLMTLFFENNKMLKRLAENPEYENEKLTKLRNTIMEQYTRTEESARGIIFTKTRQSAYALSQWITENEKFAEVGVKAHHLIGAGHSSEFKPMTQNEQKEVISKFRTGKINLLIATTVAEEGLDIKECNIVIRYGLVTNEIAMVQARGRARADESTYVLVAHSGSGVIEHETVNDFREKMMYKAIHCVQNMKPEEYAHKILELQMQSIMEKKMKTKRNIAKHYKNNPSLITFLCKNCSVLACSGEDIHVIEKMHHVNMTPEFKELYIVRENKALQKKCADYQINGEIICKCGQAWGTMMVHKGLDLPCLKIRNFVVVFKNNSTKKQYKKWVELPITFPNLDYSECCLFSDED
With B7, the binding entry in experiment [1] is “no binding”.
